Source: PubChem BioAssay AID488969 (Vanderbilt High Throughput Screening Facility, 2010)
In all, about 110,000 compounds were measured (“z-score”: median about -0.1, highest 2% from about 2 on). This is one part of the list. The source made the active and inactive calls.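 How the source made its calls: active means z-score in the third read window above 3 or below -3; inactive means the rest.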

What follows are compounds tested against Metabotropic glutamate receptor 8 (Rattus norvegicus) (UniProt P70579) (assay: mGluR8 Gi/Go-coupled signaling modulation – cell-based, rat, thallium flux, HTS, primary screen (AID 488969)). Conditions: HEK293 rat mGluR8, GIRK (G protein-gated inwardly rectifying potassium channel) thallium flux, FluoZin2; at 10 µM; stronger effect = higher value; submaximal glutamate (EC20) added with thallium.
UniProt P70579, sequence (P70579 whole entry, looked up): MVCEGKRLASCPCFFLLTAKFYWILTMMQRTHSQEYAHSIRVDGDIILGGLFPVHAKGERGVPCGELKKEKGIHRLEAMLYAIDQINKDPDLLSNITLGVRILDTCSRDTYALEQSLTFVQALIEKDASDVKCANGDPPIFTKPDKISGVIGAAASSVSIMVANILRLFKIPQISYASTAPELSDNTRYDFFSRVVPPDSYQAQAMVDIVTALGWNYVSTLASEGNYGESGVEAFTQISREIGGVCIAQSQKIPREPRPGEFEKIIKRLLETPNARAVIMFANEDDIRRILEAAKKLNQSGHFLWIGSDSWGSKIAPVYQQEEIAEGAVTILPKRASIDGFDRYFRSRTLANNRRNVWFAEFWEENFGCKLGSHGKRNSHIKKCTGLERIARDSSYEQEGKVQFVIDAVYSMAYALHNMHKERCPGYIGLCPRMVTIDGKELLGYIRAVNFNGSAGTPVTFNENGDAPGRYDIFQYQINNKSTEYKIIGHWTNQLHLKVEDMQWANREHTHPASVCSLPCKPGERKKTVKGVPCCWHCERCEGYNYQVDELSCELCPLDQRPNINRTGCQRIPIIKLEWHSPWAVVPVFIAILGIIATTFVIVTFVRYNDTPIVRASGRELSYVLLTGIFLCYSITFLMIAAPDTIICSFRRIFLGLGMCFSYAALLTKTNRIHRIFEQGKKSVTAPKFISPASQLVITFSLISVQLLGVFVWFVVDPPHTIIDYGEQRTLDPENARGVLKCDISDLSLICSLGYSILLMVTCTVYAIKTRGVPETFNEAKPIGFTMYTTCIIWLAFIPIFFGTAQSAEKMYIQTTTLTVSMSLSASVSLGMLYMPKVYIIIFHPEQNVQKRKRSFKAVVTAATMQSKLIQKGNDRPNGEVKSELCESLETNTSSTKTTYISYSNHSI
`O=C(Nc1ccc2c(c1)OCCO2)c1ccc(Cl)c(S(=O)(=O)N2CCOCC2)c1` was tested, and the z-score was -0.662. `N#C/C(=C(\O)c1ccco1)c1ccccn1` gave a z-score of -0.246. `CCOC(=O)COc1ccc2cc(C(=O)OCC)c(=O)oc2c1` was tested, and the z-score was 1.1. In the case of `C/C(=N\NC(=O)CNc1cccc(C(F)(F)F)c1)c1cccc(Br)c1`, the z-score is reported as -0.125. For `Cc1ccccc1C(=O)OC1OC(=O)C(Cl)=C1N1CCOCC1` (stereo unspecified), the z-score was -0.499. Work on `CCc1ccc(Sc2cc(C(=O)NCCN3CCOCC3)c3ccccc3n2)cc1` yielded a z-score of -0.7. `CCOC(=O)c1sc(NC(=O)CN2CCCC2)c(C(=O)OCC)c1C` showed a z-score of -0.225. Work on `CCc1nc(Sc2nc(C)cc(C)n2)c2oc3ccccc3c2n1` yielded a z-score of -0.129. `COc1ccc(Nc2nc(N)nc(CSc3nnc(C)s3)n2)cc1` gave a z-score of 2.42. `CCC(C)(C)NC(=O)Cc1ccc(OC)c(OC)c1` gave a z-score of 0.174. `CCOc1ccc(NC(=O)CCNc2c(N3CCCC3)c(=O)c2=O)cc1` gave a z-score of -0.437. For `O=C1CSC(c2ccc(Cl)cc2)N1C1CCCCC1` (stereo unspecified), the z-score was 0.0107. `COc1ccc(/C=N/NC(=O)c2ccoc2C)cc1COc1c(C)cccc1C` was tested, and the z-score was -0.274. `Cc1nc(NCC2CCCO2)nc2c1C(=O)CC(C)C2` (stereo unspecified) gave a z-score of 0.0754. Compound `COc1ccccc1N1C(=O)c2cccc3c(C(=O)O)ccc(c23)C1=O` has a z-score of -0.226. Work on `COc1ccc(C(O)CNc2ccc(C)cc2)cc1` (stereo unspecified) yielded a z-score of 0.239. `COc1ccc(-c2noc(CN3CCCCC3)n2)cc1OC` gave a z-score of 0.247. `CN(C(=S)NC(=O)c1ccccc1Br)C1CCCCC1` was tested, and the z-score was active: 3.51. For `Cc1cc(C)c(S(=O)(=O)c2ccccc2C)c(N(C)C)n1`, the z-score was -0.384. In the case of `CC(=O)Nc1ccc(S(=O)(=O)Nc2ccc(S(=O)(=O)N3CCCCCC3)cc2)cc1`, the z-score is reported as -0.013. Compound `O=C(CNS(=O)(=O)c1ccc(Br)s1)NCc1ccc2c(c1)OCO2` has a z-score of 1.5. In the case of `O=C(N/N=C/c1ccc(-c2ccc([N+](=O)[O-])cc2)o1)C(O)c1ccccc1` (stereo unspecified), the z-score is reported as -0.759. In the case of `CC(=O)Cc1nsc(NC(=O)c2ccc(Br)o2)n1`, the z-score is reported as -0.0971. `COc1ccc(C(F)(F)F)cc1NC(=O)c1nc2nc(C)cc(C(F)F)n2n1` was tested, and the z-score was 0.516. With `CCCn1c(CCC(=O)O)ccc1-c1ccc(OC)cc1` the z-score was -0.256. Compound `Cc1ccc(C)c(OCCOCCN2CC(C)OC(C)C2)c1C` (stereo unspecified) has a z-score of -0.135. Compound `O=C(CC(=O)c1ccccc1)Nc1cccnc1` has a z-score of 0.208. For `CCOC(=O)/C(C#N)=C/NC(=O)NC(C)(C)C`, the z-score was 0.141. Compound `C=CCn1c(SCC(=O)N2CCN(c3ccccc3)CC2)nnc1-c1ccco1` has a z-score of -0.329. For `Cn1c(CCc2ccccc2)nnc1SCC(=O)N1CCOCC1`, the z-score was -0.062. `Cn1c(NC(=O)c2ccco2)c(-c2ccc(Cl)cc2)c(=O)c2ccccc21` was tested, and the z-score was 0.399. With `O=C(OCc1ccc(F)cc1)c1ccc2c(c1)-c1ccccc1C2=O` the z-score was -0.0352. In the case of `CC(C)(C)n1nc2c(c1NC(=O)Cc1cccs1)CSC2`, the z-score is reported as -0.677. Work on `COc1cccc(/C=N/n2nnc3c(cnn3-c3ccccc3)c2=O)c1` yielded a z-score of 0.104. In the case of `CCCNS(=O)(=O)c1ccc(CCC(=O)NCC2CCCO2)cc1` (stereo unspecified), the z-score is reported as 0.0154. `Cn1c(SCC(=O)Nc2ccccc2-c2ccccc2)nnc1-c1ccco1` was tested, and the z-score was -0.707. Work on `O=C(NCc1ccccc1)C12CN(Cc3ccccc3)CC1C(c1ccc([N+](=O)[O-])cc1)=NO2` (stereo unspecified) yielded a z-score of -0.205. Work on `CCC(=O)Nc1c2c(nn1-c1ccc(F)cc1)CS(=O)C2` (stereo unspecified) yielded a z-score of 0.144. In the case of `COCCCNC(=O)Cn1nnc(-c2ccc(NC(=O)c3ccccc3OC)cc2)n1`, the z-score is reported as 1.23. For `CN(C)c1nc(SCc2ccccc2Cl)nc2c1CCCC2`, the z-score was -0.137. `COC(=O)Cn1c(=NC(=O)c2cccc(OC)c2)sc2cc(OC)ccc21` gave a z-score of -0.22. In the case of `O=C(NC(C(=O)N/N=C/c1ccccc1)c1n[nH]c(=O)c2ccccc12)c1ccccc1` (stereo unspecified), the z-score is reported as -0.323. In the case of `CCN(CC)c1ccc(C2CC(=O)Nc3cc(OC)c(OC)cc32)cc1` (stereo unspecified), the z-score is reported as -0.18. `COc1ccc(OCCNC2CCCC2)cc1` showed a z-score of 0.204. In the case of `COc1cccc(C(=O)Nc2ccc(F)cc2F)c1`, the z-score is reported as 0.125. Work on `COc1cc(OC)c(OC)cc1CNC1CCCCCC1` yielded a z-score of 0.971. Compound `CNCCCC1Sc2ccccc2Oc2ccccc21` (stereo unspecified) has a z-score of 2.85. `O=C(CSc1ncn[nH]1)N(C1CCCCC1)C1CCCCC1` gave a z-score of -0.388. Compound `COc1cc(C(=O)O)cc(Br)c1OC1CCCC1` has a z-score of -0.268. For `N#Cc1c(NC(=O)CSc2nnnn2C2CCCC2)sc2c1CCCC2`, the z-score was 0.275. `O=C1CCc2cc(S(=O)(=O)N3CCC(C(=O)NC4CCCc5ccccc54)CC3)ccc2N1` (stereo unspecified) gave a z-score of -0.478. `Cc1cc(C)cc(NC(=O)Cn2c(-c3ccccc3Cl)nc3ccccc32)c1` gave a z-score of -0.278. `c1ccc2[nH]c(CN3CCN(c4ncnc5c4oc4ccccc45)CC3)nc2c1` was tested, and the z-score was -0.746. With `FC(F)(F)c1cccc(-n2cccc2/C=N/n2cnnc2)c1` the z-score was -0.218. `CCNC(=S)N1CCN(c2cccc(C(F)(F)F)c2)CC1` showed a z-score of 0.0243. For `CCC(=NCCc1c(C)[nH]c2ccccc12)C1=C(O)CC(c2ccccc2)CC1=O` (stereo unspecified), the z-score was 0.443. `COc1ccc(NC(=O)c2cc(S(=O)(=O)N(C)C)ccc2N2CCCC2)cc1Cl` showed a z-score of -0.0242. `Cc1[nH]n(-c2cccc(Cl)c2)c(=O)c1/C=N/n1c(C)nc2ccccc2c1=O` was tested, and the z-score was 0.412. Work on `COCCOC(=O)C1=C(C)Nc2ncnn2C1c1ccc(F)cc1` (stereo unspecified) yielded a z-score of -0.249. `O=C(NCCCN1CCOCC1)c1ccc(Sc2ccccc2Cl)c([N+](=O)[O-])c1` showed a z-score of -1.05. `NC(=O)c1nsc(C(=O)N(CC(=O)NCc2ccco2)c2ccccc2F)c1N` showed a z-score of -0.172. `CC(=O)Nc1ccc(N2C(C(C)=O)=NN(c3ccccc3)C2c2cccs2)cc1` (stereo unspecified) showed a z-score of -0.489. `O=C(CCC(=O)OCC(=O)c1ccc(Cl)cc1)NC1CCCCC1` was tested, and the z-score was -0.041. For `O=C1C2C3c4ccccc4C(c4ccccc43)C2C(=O)N1c1nc(-c2ccccc2)cs1` (stereo unspecified), the z-score was 0.0024. For `O=C(CCCC(=O)OCC(Cl)=C(Cl)Cl)Nc1cccc2ccccc12`, the z-score was -0.124. Work on `Cc1c(CN(C)C(=O)/C=C/c2ccc([N+](=O)[O-])cc2)cnn1C` yielded a z-score of -0.304. For `Cc1ccc(N2CC(C(=O)Nc3nnc(C(C)C)s3)CC2=O)cc1` (stereo unspecified), the z-score was -0.0775. `COc1ccc2sc(NC(=O)CC(C)C)nc2c1` gave a z-score of -0.234. `Cc1c(C(=O)NCC2COc3ccccc3O2)oc2ccc(S(=O)(=O)N(C)C3CCCCC3)cc12` (stereo unspecified) showed a z-score of -0.0918. Work on `O=[N+]([O-])c1ccc(N2CCCCC2)c(Cl)c1N1CCCCC1` yielded a z-score of -0.34. With `Cc1ccc(-c2nn(-c3ccccc3)cc2/C=N/NC(=O)c2ccc3c(c2)OCO3)cc1` the z-score was -0.115.
